# Out of some 360,000 compounds screened, about 520 (0.14%) were called active. Inconclusive means that the source gave no clear call. Such entries were picked first, then a sample of the others. Calls come from the whole dose curve; as a rule, active = well fitted inhibition curve with a large enough effect; inconclusive = small, poorly fitted or top-dose-only effect; inactive = no such curve, though single readings can be large or run the other way. No potency is given beside an inconclusive call; the fits are too rough.
# Target: Rap guanine nucleotide exchange factor 3 (Homo sapiens) (UniProt O95398)
# UniProt O95398, sequence (O95398 whole entry, looked up): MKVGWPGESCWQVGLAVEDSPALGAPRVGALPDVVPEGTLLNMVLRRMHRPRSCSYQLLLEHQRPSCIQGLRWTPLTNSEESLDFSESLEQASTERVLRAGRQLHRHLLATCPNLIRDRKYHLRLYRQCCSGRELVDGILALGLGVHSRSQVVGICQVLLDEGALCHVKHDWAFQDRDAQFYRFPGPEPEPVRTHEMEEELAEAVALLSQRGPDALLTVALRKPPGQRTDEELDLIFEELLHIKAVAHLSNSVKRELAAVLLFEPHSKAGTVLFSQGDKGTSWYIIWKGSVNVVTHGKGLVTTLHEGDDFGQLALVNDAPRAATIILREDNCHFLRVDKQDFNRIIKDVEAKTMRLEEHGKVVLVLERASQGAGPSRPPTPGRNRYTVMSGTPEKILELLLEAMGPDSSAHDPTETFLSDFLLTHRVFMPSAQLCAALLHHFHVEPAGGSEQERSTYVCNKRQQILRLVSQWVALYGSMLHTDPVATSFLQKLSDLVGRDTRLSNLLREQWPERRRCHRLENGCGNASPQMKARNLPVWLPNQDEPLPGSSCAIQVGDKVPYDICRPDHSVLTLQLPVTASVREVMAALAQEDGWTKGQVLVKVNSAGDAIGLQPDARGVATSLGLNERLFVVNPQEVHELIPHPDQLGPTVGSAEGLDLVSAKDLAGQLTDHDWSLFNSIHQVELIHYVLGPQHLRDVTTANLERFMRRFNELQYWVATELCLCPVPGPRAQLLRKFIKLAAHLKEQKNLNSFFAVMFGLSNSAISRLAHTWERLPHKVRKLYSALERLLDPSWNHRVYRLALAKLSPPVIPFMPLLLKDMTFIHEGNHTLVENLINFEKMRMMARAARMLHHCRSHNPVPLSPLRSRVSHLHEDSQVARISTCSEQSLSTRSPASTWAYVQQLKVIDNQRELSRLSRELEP
# Assay: qHTS for Antagonist of cAMP-regulated guanine nucleotide exchange factor 3 (EPAC1): primary screen; note: nearly all actives have a fitted effect of over 50% in size;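 for activity change, negative = inhibition: plate controls were vehicle for no effect and positive control for full effect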
# Conditions: EPAC1 GEF assay, Rap1b-BODIPY-GDP exchange fluorescence; activity change, negative = inhibition: at 115 µM (top of the series)
# Potency is the fitted concentration of half-maximal effect; tags give direction and shape of the fitted curve.
Compound,Potency,"activity change, negative = inhibition"
Cc1nc(N)nc(N)c1Oc1ccc(Cl)cc1,"inconclusive [inhibitor, single point]",–
CC(C)c1ccc(CNc2ccc([N+](=O)[O-])cn2)cc1,"inconclusive [inhibitor, partial curve, poor fit]",–
CCc1nc2ccc(C(=O)NCCCN3CCCC3=O)cn2c1N(CC)C(=O)NCCc1ccccc1,inactive,–
Cc1ccc(NC(=S)N2CCC(NC(=O)c3ccc(F)cc3)CC2)cc1,inactive,–
Cc1ccc(N2C(=O)c3ccccc3NC2c2ccccc2O)cc1 (stereo not drawn),inactive,–
Cc1ccc(C)n1-c1cc([N+](=O)[O-])ccc1-n1ccnc1,inactive,–
COc1ccc(N2CSC3=C(C#N)C(c4ccc(OC)c(OC)c4)CC(=O)N3C2)c(OC)c1 (stereo not drawn),inactive,–
Cn1c(=O)oc2cc(S(=O)(=O)N3CCCc4ccccc43)ccc21,–,inconclusive: -4.02% [inhibitor]
O=c1ccccn1CCOc1ccccc1Cl,inactive,–
COc1cccc(C(=O)Nc2cccc(C(=O)NC3=NN(c4c(Cl)cc(Cl)cc4Cl)C(=O)C3)c2)c1,"inconclusive [inhibitor, partial curve, poor fit]",–
Cc1ccc(NC(=O)CN2C(=O)N/C(=C/c3ccco3)C2=O)cc1,"inconclusive [inhibitor, partial curve]",–
Cc1nc2ccccc2c2oc(C(=O)Nc3ccc(C(C)C)cc3)cc12,"inconclusive [inhibitor, single point]",–
Cc1ccc(NN2C(=O)C=C(c3ccc(Cl)cc3)C2=O)cc1,"inconclusive [inhibitor, partial curve]",–
CNc1ccc(/C=C2\COc3ccccc3C2=O)cc1[N+](=O)[O-],inactive,–
CCOc1ccc2c(ccc(/C=C/c3cc(C)c4cccnc4c3O)[n+]2C)c1,active: 35.5 µM,–
O=C(C[C@H]1C/C=C\C[C@@H](Cc2ccc(F)cc2)C(=O)O[C@H](c2ccccc2)CNC1=O)N[C@@H](CO)Cc1ccccc1,"inconclusive [inhibitor, single point]",–
Cc1ncc(CO)n1Cc1ccc(Cl)cc1,inactive,–
COc1ccccc1NC(=O)CC(=O)CSc1nnc(-c2ccc(C)cc2)n1-c1ccccc1,"inconclusive [inhibitor, partial curve]",–
Cc1nc(NC(=O)c2ccccc2)sc1C1(C)CC(c2ccccc2F)=NO1 (stereo not drawn),"inconclusive [inhibitor, single point]",–
Cn1c(=O)c2c(SCc3cccnc3)nc(CC(C)(C)C)nc2n(C)c1=O,"inconclusive [inhibitor, single point]",–
COc1ccc(C2C(C(=O)/C=C/c3ccco3)=C(O)C(=O)N2CCN2CCOCC2)cc1 (stereo not drawn),inactive,–
Cc1c(Cl)cccc1NC(=O)CNC(=O)c1ccc2c(c1)OCCO2,"inconclusive [inhibitor, single point]",–

Compound,Potency,"activity change, negative = inhibition"
COc1cccc(CN(C(=O)Cc2c[nH]c3ccccc23)C(C(=O)NC2CCCCC2)c2ccc(C)o2)c1 (stereo not drawn),"inconclusive [inhibitor, full curve]",–
CC(=O)c1cccc(-c2ccnc3c2CC(C(=O)NCc2ccc(N4CCN(C)CC4)cc2)O3)c1 (stereo not drawn),"inconclusive [inhibitor, single point]",–
CC[C@H]1C/C=C\Cc2ccccc2[C@H](C(=O)C[C@@H](O)CC(C)=O)OC1=O,"inconclusive [inhibitor, single point]",–
Cc1cc(C)c(C#N)c(N2CCC(C(N)=O)CC2)n1,"inconclusive [inhibitor, single point]",–
O=C(CCSc1nc(-c2ccco2)cc(C(F)(F)F)n1)NCCN1CCOCC1,"inconclusive [inhibitor, single point]",–
COc1cccc(NC(=O)c2cc(=O)c3ccccc3o2)c1,"inconclusive [inhibitor, partial curve, poor fit]",–
CCN(C[C@H]1N[C@@](CC)(C(=O)OC)[C@H]2C(=O)N(Cc3ccccc3)C(=O)[C@@H]12)S(=O)(=O)c1ccc(-c2ccccc2)cc1,inactive,–
COc1ccccc1C(=O)NCCC(=O)NC1CCCCC1C (stereo not drawn),inactive,–
COc1ccccc1NS(=O)(=O)c1ccc(N/N=C/c2ccccc2OCC(=O)O)c([N+](=O)[O-])c1,"inconclusive [inhibitor, partial curve]",–
CN(CC(=O)Nc1cc(Cl)cc(Cl)c1)Cc1cccs1,"inconclusive [inhibitor, single point]",–
COc1ccc(-c2onc3ccc(C(C)=O)cc23)cc1,"inconclusive [inhibitor, single point]",–
CCOc1cc(S(=O)(=O)NC2CC(C)(C)NC(C)(C)C2)ccc1Cl,"inconclusive [inhibitor, full curve, poor fit]",–
COc1ccc(NC(=O)c2ccco2)cc1NC(=O)c1ccccc1[N+](=O)[O-],"inconclusive [inhibitor, full curve, poor fit]",–
Cc1nnc(SCC(=O)NC(=O)Nc2ccc3c(c2)OCCO3)n1N,inactive,–
Cc1cc(C)c(Cn2cnc3ccccc32)c(C)c1,"inconclusive [inhibitor, full curve, poor fit]",–
COC(=O)c1c(NC(=O)/C=C/C(=O)O)sc(C)c1-c1ccc(C(C)C)cc1,inactive,–
O=C(COC(=O)C1CCN(C(=O)c2ccc(Cl)cc2)CC1)NC1CCS(=O)(=O)C1 (stereo not drawn),"inconclusive [inhibitor, full curve, poor fit]",–
CCN1/C(=C/C=C/c2oc3ccc(-c4ccccc4)cc3[n+]2CC)Oc2ccc(-c3ccccc3)cc21,inactive,–
CCn1cc([N+](=O)[O-])c(C(=O)N2CCN(C(=O)c3ccco3)CC2)n1,"inconclusive [inhibitor, full curve, poor fit]",–
COC(=O)C(=Cc1ccc(-c2ccsc2C(=O)OC)o1)C(=O)OC,"inconclusive [inhibitor, full curve, poor fit]",–
CCN(CC(=O)Nc1ccc(NC(C)=O)cc1)C(=O)c1ccccc1Sc1ccccc1C#N,"inconclusive [inhibitor, partial curve]",–
